Data published in PubChem BioAssay AID624171 (National Center for Advancing Translational Sciences (NCATS), 2012).
Screen size: about 410,000 compounds; about 1,200 (0.29%) were called active. The inconclusive results got no clear call from the source; some entries with a clear call stand among them for comparison. Calls follow the shape of the dose curve; as a rule, active = well fitted activation curve with a large enough effect; inconclusive = small, poorly fitted or top-dose-only effect; inactive = flat fitted curve, though single readings scatter. Potencies beside an inconclusive call are fits to weak or partial responses and may not hold up.

Assay: qHTS of Nrf2 Activators; also: nearly all actives have a fitted effect of over 65% in size
Details: AREc32 ARE-luciferase reporter (MCF7-derived line), luminescence, 24 h; activation: at 46.1 µM (top of the series)
Outline: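 Nrf2 activation is followed as ARE-luciferase induction in the AREc32 line after one day of compound treatment; luminescence is read with Steady-Glo.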
Potency is read from the fitted curve at half-maximal effect; tags tell the direction and shape of the fitted curve.

Potency, active:
O=C(CCl)NCCCCCCCCCNC(=O)CCl 11.2 µM
Cn1c(SCc2ccccc2)nc2ccsc2c1=O 12.6 µM
COc1ccc(N2C(=O)C3C(C2=O)C(C(=O)c2ccccc2)N2CCCC32)cc1 (configuration not stated) 12.6 µM
O=C(CSc1cccc[n+]1[O-])Nc1cc([N+](=O)[O-])ccc1Cl 10 µM
Cc1cccc2sc(N(CCN(C)C)C(=O)/C=C/c3cccs3)nc12 11.2 µM
O=c1c(Cl)c(N/N=C/c2ccc(Br)cc2)cnn1-c1ccccc1 7.08 µM
CC1(O)c2ccccc2C(=O)N1CCc1ccccc1F (configuration not stated) 7.08 µM
CC(=O)Nc1ccc2c(c1)C(=Nc1ccc(C)cc1)c1ccccc1-2 12.6 µM
Cn1c(/C(C#N)=C(\O)c2cc(Cl)sc2Cl)nc2ccccc21 1.41 µM

Potency, inconclusive:
O=C(CSc1ccccn1)N/N=C/c1cccc([N+](=O)[O-])c1 12.6 µM [activator, partial curve]
CCOc1ccc(-c2[nH]nc3c2C(c2ccc4c(c2)OCO4)C(C#N)=C(N)O3)cc1OC (configuration not stated) 20 µM [activator, single point]
O=[N+]([O-])c1ccccc1S(=O)(=O)Nc1cccc2cccnc12 5.62 µM [activator, single point]
Nc1ccccc1NC(=O)c1ccccc1 17.8 µM [activator, single point]
Cc1ccccc1NC1=C(Cl)C(=O)OC1OC(=O)c1ccco1 (configuration not stated) 31.6 µM [activator, single point]
CCCc1[nH]nc2c1C(c1ccc(Br)s1)C(C#N)=C(N)O2 (configuration not stated) 31.6 µM [activator, single point]
O=C(/C=C/c1cc(Br)ccc1O)c1ccco1 3.55 µM [activator, single point]
CCCCNC(=O)Nc1ccccc1C(=O)NCc1ccco1 15.8 µM [activator, single point]
COC(=O)c1sccc1NC(=O)c1ccc(Cl)cc1 6.31 µM [activator, partial curve]
COc1cc(/C=C/C(=O)c2ccc(C)cc2)ccc1OCC#N 5.01 µM [activator, single point]
Cc1cc(NS(=O)(=O)c2ccc(NC(=O)c3ccc([N+](=O)[O-])s3)cc2)nc(C)n1 3.55 µM [activator, single point]
CC(NC(=O)/C=C/c1ccco1)c1nc2ccccc2n1Cc1c(Cl)cccc1Cl (configuration not stated) 6.31 µM [activator, partial curve]
Cc1cc(C)nc(Sc2ncnc3c2oc2ccccc23)n1 22.4 µM [activator, single point]
S=c1[nH]nc(-c2ccccc2)n1/N=C/c1cccs1 25.1 µM [activator, single point]
CC(=O)N(/N=C/c1ccc([N+](=O)[O-])o1)c1nc2ccccc2c(=O)n1-c1ccccc1 35.5 µM [activator, single point]
O=C(Cc1csc(Nc2nc(=S)[nH]c3ccccc23)n1)NCCCN1CCN(c2ccccc2F)CC1 15.8 µM [activator, partial curve, poor fit]
N#Cc1c(NC(=O)c2ccc([N+](=O)[O-])o2)sc2c1CCC2 2.51 µM [activator, full curve, poor fit]
Cc1cccc(NC(=O)/C(C#N)=C/c2ccc(C)o2)c1 22.4 µM [activator, single point]
O=C(Nc1cccc2ncccc12)c1cccc(Br)c1 20 µM [activator, partial curve, poor fit]
C=C1CCc2c([nH]c3ccc(OCC(C)C)cc23)C1=O 3.16 µM [activator, partial curve, poor fit]
CC1=Nc2cc([N+](=O)[O-])ccc2NC(C)(C)C1 17.8 µM [activator, single point]
Cc1ccc(-c2nnc(-c3ccccc3Br)o2)cc1 5.01 µM [activator, full curve]
O=C(NC(=S)NNC(=O)c1ccccc1F)c1cccnc1 11.2 µM [activator, partial curve]
S=c1[nH]c(-c2ccccc2)cn1/N=C/c1ccccc1Br 4.47 µM [activator, partial curve, poor fit]
N#C/C(=C\c1ccc([N+](=O)[O-])o1)c1nc2ccccc2[nH]1 3.55 µM [activator, full curve, poor fit]
Fc1ccc2cc(-c3ccccc3F)ncc2c1 12.6 µM [activator, partial curve]
Cc1ccc(S(=O)(=O)CCc2nnc(NC(=O)CCl)s2)cc1C 22.4 µM [activator, partial curve, poor fit]
COc1cccc(-c2nnc(NC(=O)CCS(=O)(=O)c3ccc(C)cc3)o2)c1 35.5 µM [activator, single point]
O=C(/C=C/c1ccccc1)Nc1ncn[nH]1 3.16 µM [activator, full curve, poor fit]
CCOC(=O)Nc1ccc2c(c1)N(C(=O)CCN1CCOCC1)c1ccccc1S2=O (configuration not stated) 5.62 µM [activator, single point]
O=C(Nc1cc2c(oc1=O)CCCC2=O)c1ccccc1 11.2 µM [activator, partial curve, poor fit]
CC1CCCN(CCC(=O)c2ccc(Br)cc2)C1 (configuration not stated) 31.6 µM [activator, single point]
CCOC(=O)Nc1ccc2c(c1)N(C(=O)CCCl)c1ccccc1[S@]2=O 4.47 µM [activator, single point]
O=C(/C=C/c1cccc([N+](=O)[O-])c1)n1cnc2ccccc21 3.16 µM [activator, full curve, poor fit]
CS(=O)(=O)c1cc([N+](=O)[O-])c(Sc2nc3ccccc3[nH]2)c([N+](=O)[O-])c1 25.1 µM [activator, single point]
Cn1c(O)c(N=Nc2ccc(F)cc2)c2ccccc21 2 µM [activator, full curve, poor fit]
CCn1c(=N)n(CC(=O)c2cccc([N+](=O)[O-])c2)c2ccccc21 1.78 µM [activator, full curve, poor fit]
O=c1oc(-c2ccc(O)c(O)c2)cc2cccc(O)c12 31.6 µM [activator, single point]
COc1ccccc1C(=O)Nc1cc(Cl)ccc1O 12.6 µM [activator, partial curve]
COc1ccc(NC(C)=O)cc1NC(=O)c1cccc(C(F)(F)F)c1 7.08 µM [activator, partial curve, poor fit]
COc1ccc(/C=C/C(=O)c2ccc(OC)cc2OC)c(OC)c1 35.5 µM [activator, single point]
CC(C)C(=O)N1CCN(c2ccccc2NC(=O)c2ccc([N+](=O)[O-])o2)CC1 3.16 µM [activator, single point]
CN(Cc1ccccc1)C(=O)CSc1c2c(nc3ccc(Cl)cc13)CCCC2 20 µM [activator, single point]
COc1ccc(Cl)cc1NC(=O)CC(C)=O 20 µM [activator, single point]
CC(C)c1ccc(N(C(=O)c2ccco2)C(C(=O)NC2CCCC2)c2ccncc2)cc1 (configuration not stated) 22.4 µM [activator, single point]
COc1ccc(-c2noc(-c3cccs3)n2)cc1OC 7.08 µM [activator, full curve]

Potency, inactive:
O=[N+]([O-])c1cccc(C2=NCCC(c3ccccc3)O2)c1 (configuration not stated)
N#Cc1ccc(-c2ccc(OCC3CNC(=O)O3)cc2)cc1 (configuration not stated)
COCCn1c(C)cc(C(=O)COC(=O)c2ccc(Cl)c(S(N)(=O)=O)c2)c1C
CCOCCCn1c(SCC(=O)NC2CCCCC2)nc2ccccc2c1=O
O=C(NCc1cccc(Cl)c1)NCc1noc2ccccc12
CCCn1c(CN(C)Cc2ccccc2)nc2c1c(=O)n(C)c(=O)n2C
CCOc1ccc(S(=O)(=O)NCCc2cn3ccccc3n2)cc1
O=C(CNCc1ccccc1Cl)Nc1ccc(C(=O)N2CCCCC2)cc1
O=C(NCC(=O)N(c1ccc(Cl)cc1)C(C(=O)NC1CCCC1)c1cccnc1)c1ccco1 (configuration not stated)
COc1cccc(C(=O)Nc2ccccc2)c1
COc1ccc(-c2cc3ccccc3n2CC(O)CN2CCN(CCO)CC2)cc1 (configuration not stated)
CCCOc1ccc(C(=O)CCNC(Cc2c[nH]c3ccccc23)C(=O)O)cc1 (configuration not stated)
Cc1cccc(C)c1NC(=O)CSc1nc(-c2cccs2)cc(C(F)(F)F)n1
CCOC(=O)Cc1c(C)c2c(O)cc(O)cc2oc1=O
C=C(Cl)COc1ccc2c(C)cc(=O)oc2c1
Cc1cc(SCC#N)n2nc(C)c(-c3ccc(Cl)cc3)c2n1
CCCS(=O)(=O)NC(=O)C1(C)CCCN(C(=O)c2cccc(C)c2C)C1 (configuration not stated)
